In PubChem BioAssay AID686978 (National Center for Advancing Translational Sciences (NCATS), 2013):
The whole screen tested about 420,000 compounds, of which about 64,000 (15%) were called active. The inconclusive results got no clear call from the source; some entries with a clear call stand among them for comparison. Calls come from the whole dose curve; as a rule, active = well fitted inhibition curve with a large enough effect; inconclusive = small, poorly fitted or top-dose-only effect; inactive = flat fitted curve, though single readings scatter. No potency is given beside an inconclusive call; the fits are too rough.

experiment: qHTS for Inhibitors of human tyrosyl-DNA phosphodiesterase 1 (TDP1): qHTS in cells in absence of CPT; conditions: DT40 Tdp1-/- hTDP1 cells, no CPT, ATP luminescence, 48 h; activity change, negative = growth inhibition: at 46.2 µM (top of the series) unless noted; note: nearly all actives have a fitted effect of over 55% in size
Outline: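 Growth kinetics read by CellTiter-Glo luminescence after ≥48 hr at 37 °C. Cells: DT40 Tdp1-/- stably carrying human TDP1, 400 per well, compound exposure in the absence of CPT (DMSO vehicle).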
% is set by controls: 0 for no effect and ±100 for the full control effect; potency is the fitted concentration of half-maximal effect; tags give direction and shape of the fitted curve.

SMILES	Potency	activity change, negative = growth inhibition
O=[N+]([O-])c1nn(-c2ccc(Cl)cc2)n(O)c1=NCc1ccccc1	inconclusive [inhibitor, partial curve]	–
c1ccc2[nH]c(CCCc3nc4ccccc4[nH]3)nc2c1	inconclusive [inhibitor, single point]	–
Cc1cccc2cc3c(N)c(C#N)sc3nc12	inconclusive [inhibitor, partial curve]	–
OCC1(CCc2ccccc2)CCCN(C/C=C/c2ccccc2)C1 (stereo not given)	inconclusive [inhibitor, single point]	–
O=C(COn1nnc2ccc(Cl)cc21)NC1CCS(=O)(=O)C1 (stereo not given)	–	inactive: 2.41%
Cc1ccn2cc(CCNS(=O)(=O)c3ccc([N+](=O)[O-])cc3)nc2c1	inconclusive [inhibitor, single point]	–
OCc1ccccc1-c1ccc2nccn2c1	–	inactive: -16.4%
COc1cc2c(C(=O)N3CCN(c4ccccc4C)CC3)c(C)oc2cc1Br	active: 16.4 µM	–
Cc1cc(C(F)(F)F)nn1CC(=O)NNC(=S)Nc1ccc(Cl)cc1	–	inactive: 2.97%
Cc1ccccc1C(=O)N1CCC(C(=O)Nc2ccc(S(=O)(=O)N(C)C(C)C)cc2)CC1	active: 20.6 µM	–
ClC(=C\c1ccccc1)/C=N/N1CCN(c2ccccn2)CC1	inconclusive [inhibitor, single point]	–
CC(=O)c1ccc(NC(=O)N2CCN(c3ccc(C)cc3)C(C)C2)cc1 (stereo not given)	inconclusive [inhibitor, single point]	–
CCn1c(-c2ccccc2)c(C(=O)CC#N)c2ccccc21	inconclusive [inhibitor, single point]	–
Cc1ccsc1CN(Cc1ccco1)c1cnc(S(C)(=O)=O)nc1C(=O)Nc1ccc(Cl)cc1	inconclusive [inhibitor, single point]	–
Cc1c(S(=O)(=O)N2CCc3ccccc3C2)c(=O)n(C)c(=O)n1C	inconclusive [inhibitor, single point]	–
Fc1ccccc1CNCC1CCCO1 (stereo not given)	–	inactive: 1.93%
CC(=O)N1CCC2(CC1)C(C#N)=C(N)Oc1c2sc2nc(C)cc(C)c12	inconclusive [inhibitor, single point]	–
CCN(CC)CCn1nc(C)nc1-c1ccccc1O	–	inactive: -8.15%
COc1ccc(-c2cn3nc(SCC(=O)Nc4cccc(C)c4C)ccc3n2)cc1	inconclusive [inhibitor, single point]	–
CCOCCn1ccc2c(OCC(=O)Nc3cc(C)cc(C)c3)cccc2c1=O	inconclusive [inhibitor, single point]	–
